This passage reports cytotoxicity call and growth inhibition call results from the antibiotic and cytotoxicity screens of Wong et al. (2023).

Some of the results follow.

One assay concerns HSkMC. The assay can be described thus: cytotoxicity call (relative viability < 0.9). The conditions noted are these: 10 µM.
Another assay deals with HepG2. The assay can be described thus: cytotoxicity call (relative viability < 0.9). The settings on record: 10 µM.
Another assay concerns S. aureus RN4220. The assay can be described thus: growth inhibition call (relative growth <= 0.2). The settings on record: 50 µM.

As to `C[C@@H]1CN([C@H](C)CO)C(=O)c2cc(NC(=O)Nc3ccc4c(c3)OCO4)ccc2O[C@@H](C)CCCCO[C@H]1CN(C)Cc1ccc(C(F)(F)F)cc1`, the cytotoxicity call with HSkMC is “inactive”. For the same molecule, the cytotoxicity call in the assay with HepG2 is “active”. The growth inhibition call with S. aureus RN4220 is “inactive”.
Turning to `C[C@@H]1CN([C@@H](C)CO)C(=O)c2cc(NS(=O)(=O)c3ccc(Cl)cc3)ccc2O[C@@H](C)CCCCO[C@H]1CN(C)S(=O)(=O)c1ccccc1`, the cytotoxicity call with HSkMC and with HepG2 was “inactive” throughout. In addition, the growth inhibition call with S. aureus RN4220 is “inactive”.
Regarding `NC(=O)c1ccccc1NC(=O)CCC(=O)O`, the cytotoxicity call with HSkMC and with HepG2 was “inactive” in each case. Moreover, the growth inhibition call in the assay with S. aureus RN4220 is “inactive”.
Regarding `CC(C)NC(=O)Nc1ccc2c(c1)C(=O)N(C)[C@@H]1CC[C@H](CC(=O)NCc3ccc(F)cc3)O[C@@H]1CO2`, the cytotoxicity call in the assay on HSkMC and in the assay on HepG2 was “inactive” throughout. For the same molecule, the growth inhibition call in the assay on S. aureus RN4220 was “inactive”.
Take `O=C(O)c1ccccc1C(=O)Nc1ccc(S(=O)(=O)Nc2nccs2)cc1`: the cytotoxicity call in the assay with HSkMC and with HepG2 was “inactive” throughout. In the assay on S. aureus RN4220, the growth inhibition call is “inactive”.
Take `CN1CCN(C(=O)C[C@H]2C[C@H]3c4cc(NC(=O)c5ccc6c(c5)OCO6)ccc4O[C@H]3[C@H](CO)O2)CC1`: the cytotoxicity call in the assay on HSkMC and with HepG2 was “inactive” throughout. In addition, in the assay with S. aureus RN4220, the growth inhibition call is “inactive”.
Turning to `O=C(C[C@@H]1C[C@@H]2c3cc(NC(=O)C4CCOCC4)ccc3O[C@@H]2[C@H](CO)O1)NCc1ccc(Cl)cc1`, the cytotoxicity call in the assay with HSkMC and in the assay on HepG2 was “inactive” throughout. In addition, the growth inhibition call in the assay with S. aureus RN4220 was “inactive”.
`C[C@H]1CN([C@@H](C)CO)C(=O)c2cc(C#CCN(C)C)cnc2O[C@H]1CN(C)C(=O)CN1CCOCC1`: the cytotoxicity call in the assay on HSkMC and in the assay on HepG2 was “inactive” throughout. Further, the growth inhibition call in the assay with S. aureus RN4220 is “inactive”.
In the case of `Cc1ccc(S[C@]2(C(=O)NC(C)C)CC(=O)N(Cc3ccccc3C(F)(F)F)[C@@H]2c2ccc(CO)cc2I)cc1`, the cytotoxicity call with HSkMC and in the assay on HepG2 was “inactive” each time. Besides, the growth inhibition call with S. aureus RN4220 was “inactive”.
In the case of `COc1cccc(C#Cc2ccc3c(c2)O[C@H](CN(C)C(=O)c2ccccn2)[C@H](C)CN([C@@H](C)CO)S3(=O)=O)c1`, the cytotoxicity call in the assay on HSkMC and in the assay with HepG2 was “inactive” in each case. In addition, in the assay on S. aureus RN4220, the growth inhibition call is “inactive”.
For the molecule `C[C@H](CO)N1C[C@H](C)[C@H](CN(C)Cc2ccc(C(F)(F)F)cc2)Oc2ccc(NC(=O)Nc3ccc(F)cc3)cc2CC1=O`, the cytotoxicity call in the assay with HSkMC and in the assay with HepG2 was “active” throughout. Besides, in the assay on S. aureus RN4220, the growth inhibition call was “inactive”.
As to `C[C@@H]1CN([C@H](C)CO)C(=O)c2cc(NC(=O)Cc3ccccc3)ccc2O[C@H]1CN(C)S(C)(=O)=O`, the cytotoxicity call in the assay with HSkMC and in the assay on HepG2 was “inactive” throughout. In addition, in the assay with S. aureus RN4220, the growth inhibition call is “inactive”.
Consider `C[C@H](CO)N1C[C@H](C)[C@H](CN(C)C(=O)Cc2ccccn2)Oc2ncc(-c3ccc(F)cc3)cc2C1=O`, for which the cytotoxicity call in the assay with HSkMC and in the assay on HepG2 was “inactive” in each case. Also, the growth inhibition call with S. aureus RN4220 is “inactive”.
As to `CC(C)NC(=O)N(C)C[C@H]1Oc2ccc(NC(=O)C3CCCCC3)cc2C(=O)N([C@@H](C)CO)C[C@H]1C`, the cytotoxicity call with HSkMC and in the assay on HepG2 was “inactive” throughout. Also, the growth inhibition call in the assay with S. aureus RN4220 was “inactive”.
As for `COCCNC(=O)C[C@@H]1CC[C@H]2[C@@H](COC[C@@H](O)CN2S(=O)(=O)c2ccccc2F)O1`, the cytotoxicity call in the assay with HSkMC and with HepG2 was “inactive” in each case. In addition, the growth inhibition call with S. aureus RN4220 is “inactive”.
`C[C@@H]1CN([C@@H](C)CO)C(=O)c2cccc(NS(C)(=O)=O)c2O[C@@H]1CN(C)Cc1ccc(C(=O)Nc2ccccc2N)cc1`: the cytotoxicity call in the assay on HSkMC and in the assay on HepG2 was “inactive” in each case. The growth inhibition call with S. aureus RN4220 was “inactive”.
As for `C[C@H](CO)N1C[C@H](C)[C@H](CN(C)CC2CC2)OCCCC[C@H](C)Oc2ccc(NC(=O)Cc3ccccc3)cc2C1=O`, the cytotoxicity call with HSkMC and with HepG2 was “inactive” each time. Further, the growth inhibition call in the assay with S. aureus RN4220 was “inactive”.
`CN(C)CC#Cc1ccc([C@@H]2[C@H](CO)N3C(=O)CN(C(=O)CN(C)C)C[C@@H]23)cc1`: the cytotoxicity call with HSkMC and in the assay on HepG2 was “inactive” in each case. The growth inhibition call in the assay on S. aureus RN4220 is “inactive”.
For `C[C@H]1CN([C@@H](C)CO)C(=O)c2cccc(NS(=O)(=O)c3ccccc3)c2O[C@@H]1CN(C)C(=O)Nc1cccc2ccccc12`, the cytotoxicity call with HSkMC and with HepG2 was “inactive” in each case. Besides, in the assay with S. aureus RN4220, the growth inhibition call is “inactive”.
`C[C@@H]1CN([C@@H](C)CO)C(=O)c2cc(NC(=O)Nc3cccc4ccccc34)ccc2O[C@@H]1CN(C)Cc1ccc(C(=O)Nc2ccccc2N)cc1`: the cytotoxicity call with HSkMC and in the assay on HepG2 was “inactive” each time. Further, the growth inhibition call with S. aureus RN4220 is “inactive”.
Turning to `C=CC[C@H](CC(=O)NCCO)C(=O)NC[C@H](OC(=O)[C@H](CC=C)CC(=O)OC(C)(C)C)c1ccccc1`, the cytotoxicity call in the assay on HSkMC and in the assay with HepG2 was “inactive” each time. For the same molecule, the growth inhibition call with S. aureus RN4220 is “inactive”.
`COC1=CC(=O)C(O)=CC1=CC=Cc1ccccc1`: the cytotoxicity call in the assay on HSkMC and in the assay with HepG2 was “active” in each case. For the same molecule, the growth inhibition call in the assay on S. aureus RN4220 was “inactive”.
`C[C@@H]1CCCCO[C@H](CN(C)C(=O)Nc2ccc(F)cc2)[C@H](C)CN([C@@H](C)CO)C(=O)c2cc(NS(=O)(=O)c3ccc(Cl)cc3)ccc2O1`: the cytotoxicity call in the assay on HSkMC and in the assay on HepG2 was “inactive” in each case. In the assay with S. aureus RN4220, the growth inhibition call was “inactive”.
With `C[C@@H]1CN([C@@H](C)CO)C(=O)c2cccc(NC(=O)C3CCOCC3)c2O[C@H]1CN(C)C(=O)NC1CCCCC1`, the cytotoxicity call in the assay on HSkMC and in the assay on HepG2 was “inactive” each time. For the same molecule, in the assay on S. aureus RN4220, the growth inhibition call was “inactive”.
`COc1ccc(CN(C)C[C@H]2OCCCC[C@H](C)Oc3ccc(NC(=O)C4CCCCC4)cc3C(=O)N([C@H](C)CO)C[C@@H]2C)cc1`: the cytotoxicity call in the assay with HSkMC and in the assay with HepG2 was “inactive” in each case. The growth inhibition call in the assay with S. aureus RN4220 is “inactive”.
For `COc1ccc(S(=O)(=O)N(C)C[C@@H]2Oc3ccc(NC(=O)Cn4cnnn4)cc3C(=O)N([C@@H](C)CO)C[C@H]2C)cc1`, the cytotoxicity call in the assay on HSkMC (human skeletal muscle cells) and with HepG2 was “inactive” each time. For the same molecule, in the assay with S. aureus RN4220, the growth inhibition call is “inactive”.
Consider `CNC(=O)CN1CCN2CCN(CC(=O)NC)CC(=O)[O][Gd]([O]C(=O)C2)[O]C(=O)C1`, for which the cytotoxicity call with HSkMC and in the assay with HepG2 was “inactive” throughout. In addition, in the assay on S. aureus RN4220, the growth inhibition call was “inactive”.
As for `O=C(C[C@H]1C=C[C@@H](NC(=O)c2ccc(F)cc2)[C@H](CO)O1)NCc1ccncn1`, the cytotoxicity call in the assay with HSkMC and with HepG2 was “inactive” each time. The growth inhibition call with S. aureus RN4220 is “inactive”.
